Laboratory results taken from PubChem BioAssay AID504466 (National Center for Advancing Translational Sciences (NCATS), 2011).
The campaign covered roughly 330,000 compounds. About 4,200 (1.3%) were called active. The shares of active, inactive and inconclusive entries below differ from those in the screen. Calls come from the whole dose curve; as a rule, active = well fitted activation curve with a large enough effect; inconclusive = small, poorly fitted or top-dose-only effect; inactive = no such curve, though single readings can be large or run the other way. Potencies beside an inconclusive call are fits to weak or partial responses and may not hold up.

Assay: qHTS screen for small molecules that induce genotoxicity in human embryonic kidney (HEK293T) cells expressing luciferase-tagged ELG1; note: nearly all actives have a fitted effect of over 60% in size; for activity change, positive = activation: % of control where 0% means no effect
Conditions: HEK293T ELG1-luciferase reporter, luminescence, 16 h; series mostly up to 46 µM; activity change, positive = activation: at the top concentration
Method in brief: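 Reporter readout depends on ELG1 protein level, which increases with genetic stress. After 16 hr compound exposure at 37 °C, luciferase activity was quantified using ONE-Glo.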
Potency is the fitted concentration of half-maximal effect; tags give direction and shape of the fitted curve.

Compound	activity change, positive = activation	Potency
O=C(NC1CCS(=O)(=O)C1)c1ccc2c(c1)OCO2 (stereo not given)	inactive: 1.67%	–
COCCN(C(=O)C1CCN(C(=O)c2ccccc2C)CC1)c1c(N)n(CC(C)C)c(=O)[nH]c1=O	inactive: 2.01%	–
CC[C@]1(O)CC2CN(CCc3c([nH]c4ccccc34)[C@@](C(=O)OC)(c3cc4c(cc3OC)N(C=O)[C@H]3[C@@](O)(C(=O)OC)[C@H](OC(C)=O)[C@]5(CC)C=CCN6CC[C@]43[C@@H]65)C2)C1 (stereo not given in full)	–	inconclusive: 1.46 µM [activator, full curve, poor fit]
COc1ccc(-c2nc(Cn3c(SCc4ccccc4F)nc4ccncc43)c(C)o2)cc1	–	inconclusive: 32.6 µM [activator, partial curve, poor fit]
O=C(COc1ccccc1Cl)NCc1ccccc1	–	inconclusive: 25.9 µM [activator, partial curve, poor fit]
O=C(Nc1nc2ccsc2c(=O)s1)c1ccc(F)cc1	–	inconclusive: 4.61 µM [activator, partial curve]
CN(c1ccc(O)cc1)c1nc(-c2ccccc2)cs1	–	inconclusive: 6.51 µM [activator, full curve]
Fc1ccccc1-c1ccc(/C=N/Nc2nc3ccccc3[nH]2)o1	–	inconclusive: 5.8 µM [activator, full curve, poor fit]
Cc1ccc(C)n1-c1ccc(-c2ccn[nH]2)cc1	–	inconclusive: 23.1 µM [activator, partial curve]
COc1ccc(-c2cn3cc(Br)cnc3n2)cc1	–	active: 20.6 µM
CCOC(=O)CNC(=O)CSc1nnc(NC(=O)c2ccc(C)cc2)s1	–	inconclusive: 2.59 µM [activator, partial curve]
COCCn1c(SCC(=O)Nc2ccc(C)cc2)nc2c(oc3ccccc32)c1=O	–	inconclusive: 29.1 µM [activator, single point]
Nc1cc(N)nc(SCCc2ccccc2)n1	–	inconclusive: 25.9 µM [activator, partial curve, poor fit]
CCc1nnc(NS(=O)(=O)c2ccc(NC(=O)c3ccc(Cl)cc3)cc2)s1	inactive: -6.44%	–
N/C(=N\OC(=O)COc1ccc(Cl)cc1Br)c1ccncc1	–	active: 8.2 µM
COC(=O)c1c(C)[nH]c(C(=O)CN2C(=O)NC3(CCOc4ccccc43)C2=O)c1C (stereo not given)	inactive: 1.38%	–
CCCCCc1ccc(CC(=O)O)cc1	inactive: 2.12%	–
COc1cccc(OCc2cc(C(=O)N(C)Cc3nc(C)cs3)no2)c1	–	active: 11.6 µM
Cc1ccc(/C(N)=N/OC(=O)c2ccc3ccccc3c2)cc1	–	inconclusive: 6.51 µM [activator, single point]
O=C(CSc1nccn1Cc1ccco1)Nc1ccc(F)cc1	–	inconclusive: 29.1 µM [activator, partial curve, poor fit]
Cc1nc(SC2CC(=O)N(c3ccccc3)C2=O)n[nH]1 (stereo not given)	inactive: -1.28%	–
N#C/C(C(=O)c1ccccc1)=C1/CCCCCN1	–	inconclusive: 11.2 µM [activator, partial curve, poor fit]
Cc1cccc(/C=C2\CCC(C3CCCC3)C2=O)c1 (stereo not given)	–	inconclusive: 29.1 µM [activator, single point]
Cc1ccc(NC(=O)CCCNC(=O)c2ccc(Cl)cc2)nc1	–	inconclusive: 20.6 µM [activator, single point]

Compound	activity change, positive = activation	Potency
COc1ccc(-c2cc(C(=O)Nc3c(C)nn(Cc4ccc(Cl)cc4)c3C)no2)cc1	–	inconclusive: 29.1 µM [activator, partial curve, poor fit]
C/C(=N\Nc1nc2ccccc2c(=O)n1O)c1ccco1	–	inconclusive: 9.2 µM [activator, partial curve, poor fit]
CCCC(=O)c1ccc(-c2ccccc2)cc1	–	inconclusive: 16.4 µM [activator, single point]
Nc1cccc(-c2nc3ccccc3[nH]2)c1	–	inconclusive: 14.6 µM [activator, partial curve]
O=C(Nc1ccccc1Cl)N(Cc1nc2ccccc2c(=O)[nH]1)Cc1cccs1	inactive: -1.1%	–
O=C(Nc1ccc(NC(=O)c2ccco2)cc1)c1ccc2c(c1)OCCO2	–	inconclusive: 20.6 µM [activator, partial curve, poor fit]
Cn1c(=O)n(C)c2cc(NS(=O)(=O)c3ccc(F)cc3)ccc21	–	active: 18.3 µM
COc1ccc(C(=O)Nc2ccc(-c3ccc(C)o3)cc2)cc1S(=O)(=O)N1CCOCC1	inactive: -34.4%	–
O=C(CNCc1ccccc1Cl)Nc1ccc2c(c1)OCCO2	–	inconclusive: 23.1 µM [activator, partial curve]
COc1ccc(CCCNC(=O)C2CCC(=O)N(CC3CCCCC3)C2)cc1 (stereo not given)	inactive: -10.3%	–
CCN(CC)c1ccc(/C=N/NC(=O)C(O)(c2ccccc2)c2ccccc2)o1	–	inconclusive: 20.6 µM [activator, partial curve, poor fit]
Cc1ccc(/C=C2/CCc3c([nH]c4ccccc34)C2=O)cc1	–	inconclusive: 1.64 µM [activator, full curve]
FC(c1nc2ccccc2[nH]1)C(F)(F)F (stereo not given)	inactive: 1.41%	–
CN(C)c1ccc(C(=O)n2nnc3ccccc32)cc1	–	inconclusive: 25.9 µM [activator, partial curve, poor fit]
COc1cccc(CCN2C(=O)C(=O)N([C@@H](CNCc3ccccc3)Cc3ccccc3F)C[C@@H]2C(C)(C)C)c1	inactive: -4.54%	–
O=C(CCc1ccccc1)NCCSc1ccccc1	–	inconclusive: 18.3 µM [activator, partial curve, poor fit]
Cc1ccccc1-c1nc(-c2ccc(Br)o2)no1	–	inconclusive: 16.4 µM [activator, partial curve]
COc1ccc(OCc2cc(C(=O)N3CCN(C4CCCC4)CC3)no2)c(Cl)c1	–	inconclusive: 10.3 µM [activator, partial curve, poor fit]
O=C(Nc1ccc2c(c1)OCO2)c1c(F)cccc1F	–	inconclusive: 13 µM [activator, partial curve, poor fit]
CN(CC(=O)Nc1nc2ccccc2s1)S(=O)(=O)c1ccccc1	–	inconclusive: 10.3 µM [activator, partial curve, poor fit]
O=C(Nc1ccc(Cl)cc1)C1=Cc2ccccc2OC1	–	active: 1.46 µM
O=C(Nc1nc(-c2cccs2)cs1)c1ccc(Cl)cc1	–	inconclusive: 20.6 µM [activator, partial curve, poor fit]
Cc1ccc(-c2nnc(-c3ccc(NC(=O)Cc4cccs4)cc3)o2)cc1	–	inconclusive: 11.6 µM [activator, partial curve, poor fit]
CC(=O)c1c(C)[nH]c(C(=O)Nc2ccc(Cl)cc2F)c1C	–	inconclusive: 3.66 µM [activator, full curve]

Compound	activity change, positive = activation	Potency
COc1ccc(NC(=O)c2cc(F)c(F)cc2Cl)cc1Cl	–	inconclusive: 20.6 µM [activator, single point]
O=C(Nc1ccc(S(=O)(=O)N2CCCCC2)cc1)C1CCCO1 (stereo not given)	inactive: -0.921%	–
CC(=O)Nc1ccc2c(c1)nc1n2CCN(C2CCCCC2)C1	–	inconclusive: 18.3 µM [activator, partial curve]
NC(=NCc1ccco1)NC(=O)c1ccc(Cl)cc1	–	inconclusive: 14.6 µM [activator, partial curve]
CN(C)c1cccc(C(=O)Nc2nnc(Cc3ccccc3)s2)c1	–	inconclusive: 16.4 µM [activator, partial curve, poor fit]
CC(C)(C)c1ccc(C(=O)NC(=S)NNC(=O)c2cccs2)cc1	–	inconclusive: 23.1 µM [activator, partial curve, poor fit]
COc1ccc(NC(=O)c2ccccn2)cc1OC	–	inconclusive: 18.4 µM [activator, partial curve]
O=C(NCc1ccc(Cl)cc1)c1ccc(-c2ccccc2C(F)(F)F)o1	inactive: -1.54%	–
CCC1CCCCN1C(=O)CSc1nnc(-c2cccc(Cl)c2)o1 (stereo not given)	–	active: 18.4 µM
COc1ccc(-c2cnn3c4c(c(C)nc23)CCN4C(C)C)cc1OC	–	inconclusive: 5.8 µM [activator, partial curve, poor fit]
CC1(C)OC(=O)C(=CNc2cccc(C(=O)O)c2)C(=O)O1	inactive: 1.46%	–
COc1ccc(-c2ccc3ccccc3n2)cc1OC	–	active: 4.11 µM
CC(C)(C)C(=O)N1CCN(S(=O)(=O)c2ccc3c(c2)OCCCO3)CC1	–	inconclusive: 18.3 µM [activator, single point]
COc1ccc(/C=N/N=C(\N)c2nonc2N)cc1	–	active: 0.73 µM
COc1cc(/C=C/C2=CC(C)(C)NC(=S)N2)cc(OC)c1OC	–	inconclusive: 16.4 µM [activator, partial curve, poor fit]
COC(=O)c1c(NC(=O)CN(c2ccccc2)S(C)(=O)=O)sc2c1CCCC2	inactive: -2.32%	–
O=S(=O)(Nc1cccnc1)c1ccccc1	–	inconclusive: 0.0164 µM [activator, full curve, poor fit]
CCn1c(SCC(=O)Nc2cccc(F)c2)nnc1-c1cc2cc(Br)ccc2o1	–	inconclusive: 25.9 µM [activator, single point]
C[C@@H](C(=O)Nc1ccc2c(c1)OCCO2)n1nnc2ccccc2c1=O	–	inconclusive: 9.2 µM [activator, partial curve]
CCSc1ccccc1C(=O)Nc1nncs1	inactive: 2.64%	–
CCN(CC)S(=O)(=O)c1ccc(N2CCCC2)c(NC(=O)c2ccc([N+](=O)[O-])o2)c1	inactive: -2.57%	–
Cc1ccnc(NC(=S)NC(=O)c2cccs2)c1	–	active: 2.06 µM
